Variants at the floor of the assay are shown more often than the library holds them.
B1: TPR 5TU (parent)
chain: GGAUCUUCUCGAUCUAACAAAAAAGACAAAUCUGCCACAAAGCUUGAGAGCAUCUUCGGAUGCAGAGGCGGCAGCCUUCGGUGGCGCGAUAGCGCCAACGUUCUCAACUAUGACACGCAAAACGCGUGCUCCGUUGAAUGGAGUUUAUCAUG

Variants of: B1
Assay: polymerase ribozyme fitness, log enrichment relative to wild type (log ratio); higher = more active; in vitro selection for triplet polymerase activity
Outline: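 Each subunit of a heterodimeric triplet polymerase ribozyme was represented by a PCR-built, transcribed mutant library that underwent triplicate single-round in vitro selection with frozen incubation at −7 °C. Extended constructs were recovered by gel excision, streptavidin-bead capture and RT-PCR, and Illumina sequencing of input and output libraries kept genotypes with ≥10 input reads and ≥1 read per output. Fitness is the logarithm of genotype enrichment relative to wild-type enrichment, from inverse-variance-weighted replicate averages, with a logarithm base of 2.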
In the case of A19C A24C U44A C96G C103A, the “polymerase ribozyme fitness (log ratio)” value is reported as at most -4.2. With C18U C32U A37C C54A C69A G70U A97U A138C C149A the “polymerase ribozyme fitness (log ratio)” value was at most -4.2. With C18U A19C A21G G80C A107U G152U the “polymerase ribozyme fitness (log ratio)” value was at most -4.2. For A19C A24U C57G C75U G92U C118A, the “polymerase ribozyme fitness (log ratio)” value was -0.536. With C18G A91C C118A the “polymerase ribozyme fitness (log ratio)” value was at most -4.2. In the case of A19C C43A U61A G62C G80C C85U G86U A107U C131G, the “polymerase ribozyme fitness (log ratio)” value is reported as at most -4.2. With A19C A41G G59U A91C A107G A120U the “polymerase ribozyme fitness (log ratio)” value was at most -4.2. In the case of C18U A20G C87G U102G, the “polymerase ribozyme fitness (log ratio)” value is reported as at most -4.2. For C18G C57U G71A G84A A107C A122G G141C, the “polymerase ribozyme fitness (log ratio)” value was at most -4.2. In the case of C18U G84A A113G C114U, the “polymerase ribozyme fitness (log ratio)” value is reported as -2.6. With C18G C87G the “polymerase ribozyme fitness (log ratio)” value was at most -4.2. For C18U A39U G48C C51U A52C U55A A66C C85G C116U A120U G141C, the “polymerase ribozyme fitness (log ratio)” value was at most -4.2. For A19G C51U A52C A60U G65A G84U C85A C87U A98C A138G, the “polymerase ribozyme fitness (log ratio)” value was at most -4.2. With C18G A52C C54U G68C G81A C87G C93G C99U the “polymerase ribozyme fitness (log ratio)” value was at most -4.2. In the case of A19C A22G A64U C72G C123U U144A, the “polymerase ribozyme fitness (log ratio)” value is reported as at most -4.2. For A19G G25U C32G U33A A40C A49G U55A C85U A106C, the “polymerase ribozyme fitness (log ratio)” value was at most -4.2. With A19G C27U the “polymerase ribozyme fitness (log ratio)” value was -1.17. For A19C A26G C43U C75G U135C, the “polymerase ribozyme fitness (log ratio)” value was at most -4.2. For A19C U53A, the “polymerase ribozyme fitness (log ratio)” value was -1.57. In the case of A19U A22C C93U U145A, the “polymerase ribozyme fitness (log ratio)” value is reported as -1.22. In the case of A19C A39G A41U U78G G94U A107G A121U G140C G143C U146G, the “polymerase ribozyme fitness (log ratio)” value is reported as at most -4.2. In the case of A19G A41C G59A G62A A73U C118G A150U, the “polymerase ribozyme fitness (log ratio)” value is reported as at most -4.2. In the case of C18G A30C A40C G83C C93A A106U C108A, the “polymerase ribozyme fitness (log ratio)” value is reported as at most -4.2. In the case of A19C G126U U145A, the “polymerase ribozyme fitness (log ratio)” value is reported as -0.56. With C18U C76A G83C G136A U148C the “polymerase ribozyme fitness (log ratio)” value was at most -4.2. In the case of A19U A21C A39G G67C C87G U135G G140U, the “polymerase ribozyme fitness (log ratio)” value is reported as at most -4.2. In the case of C18G C27U A37C A106U, the “polymerase ribozyme fitness (log ratio)” value is reported as at most -4.2. In the case of A19C G80C C105U G117C A120U, the “polymerase ribozyme fitness (log ratio)” value is reported as at most -4.2. For C18G G92C C129U A150U, the “polymerase ribozyme fitness (log ratio)” value was -3.54. In the case of A19G C54U G92A C118A C149U, the “polymerase ribozyme fitness (log ratio)” value is reported as at most -4.2. In the case of A19C U53G C85U G92A C103A G141C, the “polymerase ribozyme fitness (log ratio)” value is reported as at most -4.2. For C18U A121U, the “polymerase ribozyme fitness (log ratio)” value was -1.1. With A19C C99G A107U the “polymerase ribozyme fitness (log ratio)” value was at most -4.2. For A19U A26U U90G C118U A120U G136U, the “polymerase ribozyme fitness (log ratio)” value was at most -4.2. For A19C C57U C72U A73U G80A C95A, the “polymerase ribozyme fitness (log ratio)” value was at most -4.2. For C18G G25U A52C C87A, the “polymerase ribozyme fitness (log ratio)” value was at most -4.2. With C18U A24U C27A G59A U90A C123A U127A A150G the “polymerase ribozyme fitness (log ratio)” value was at most -4.2. In the case of A19C U61A C87U C96G A97C C99U A110C, the “polymerase ribozyme fitness (log ratio)” value is reported as at most -4.2. For A19C A40C C51A C87A C116A G136U U139C U148C, the “polymerase ribozyme fitness (log ratio)” value was at most -4.2. In the case of A19G A24G A66G G68C C96G, the “polymerase ribozyme fitness (log ratio)” value is reported as at most -4.2. For C18G C79G G81C U90G G141A, the “polymerase ribozyme fitness (log ratio)” value was at most -4.2. With C18U G68C G141A U144A U151G the “polymerase ribozyme fitness (log ratio)” value was at most -4.2. In the case of C18U A30U A89U C93G C131A G140U U145A, the “polymerase ribozyme fitness (log ratio)” value is reported as at most -4.2. In the case of C18U U31A C76U A107G U144G, the “polymerase ribozyme fitness (log ratio)” value is reported as at most -4.2. With C18U C93A C95A C123G the “polymerase ribozyme fitness (log ratio)” value was at most -4.2. With C18G G50A C96G A121C the “polymerase ribozyme fitness (log ratio)” value was -2.18. With A19G U55G A64C A122G A138C U144G the “polymerase ribozyme fitness (log ratio)” value was at most -4.2. For A19C U45A A73G C79U C132U U139A G141C, the “polymerase ribozyme fitness (log ratio)” value was at most -4.2. With A19G G94U C96U C116A C125U G133U the “polymerase ribozyme fitness (log ratio)” value was at most -4.2. In the case of A19C G50C U90C G126C U148C, the “polymerase ribozyme fitness (log ratio)” value is reported as at most -4.2. With C18U A22C A49G U61A C131A G141U A150C the “polymerase ribozyme fitness (log ratio)” value was at most -4.2. For A19C C32G G46C G65C G86A C93G, the “polymerase ribozyme fitness (log ratio)” value was at most -4.2. With A19G A23U C38U G42U G68A U82A the “polymerase ribozyme fitness (log ratio)” value was at most -4.2. In the case of A19C C43U, the “polymerase ribozyme fitness (log ratio)” value is reported as at most -4.2. For A19G G42C A52G C87A U111C A113U G143U, the “polymerase ribozyme fitness (log ratio)” value was at most -4.2. For A19C G94C U102G, the “polymerase ribozyme fitness (log ratio)” value was at most -4.2. In the case of A19G C51G A91U C93A C118G G136A, the “polymerase ribozyme fitness (log ratio)” value is reported as at most -4.2. In the case of A19C A26C A29U G92C A97G U145G, the “polymerase ribozyme fitness (log ratio)” value is reported as at most -4.2. In the case of A19U A21U G46C C96A U134A, the “polymerase ribozyme fitness (log ratio)” value is reported as at most -4.2. In the case of C18G C38U A107C, the “polymerase ribozyme fitness (log ratio)” value is reported as at most -4.2. In the case of C18G C36A C95A C96A, the “polymerase ribozyme fitness (log ratio)” value is reported as at most -4.2. In the case of A19G A41U C57U G84U U146A A147U U151A, the “polymerase ribozyme fitness (log ratio)” value is reported as at most -4.2. For C18U G50U U61C A138U, the “polymerase ribozyme fitness (log ratio)” value was at most -4.2. In the case of A19G A20U C54U G133U U145G, the “polymerase ribozyme fitness (log ratio)” value is reported as at most -4.2. With A19U A20C U55A A73C G84A C96A G143A U145G U146G C149G the “polymerase ribozyme fitness (log ratio)” value was at most -4.2. In the case of A19G C27A C57A G92U A97G G133A U134G, the “polymerase ribozyme fitness (log ratio)” value is reported as at most -4.2. For A19G U31C A52C A60U G62A C103G, the “polymerase ribozyme fitness (log ratio)” value was at most -4.2. With A19G A23G G50A U55A U56C A106U U109C the “polymerase ribozyme fitness (log ratio)” value was at most -4.2. With A19C A20U C38A C87G A110G U145C the “polymerase ribozyme fitness (log ratio)” value was at most -4.2. For C18U G50U G67A C96U C103G, the “polymerase ribozyme fitness (log ratio)” value was at most -4.2. In the case of A19C C87A C99U U139C A150C, the “polymerase ribozyme fitness (log ratio)” value is reported as at most -4.2. For C18U G50C C72A A91U G128U, the “polymerase ribozyme fitness (log ratio)” value was at most -4.2. With C18U C38U A40G U55A C76A C87U C95U the “polymerase ribozyme fitness (log ratio)” value was at most -4.2. With A19G A41U C93A G141A the “polymerase ribozyme fitness (log ratio)” value was at most -4.2. In the case of A19C C57U C72G C125G U135C G141A, the “polymerase ribozyme fitness (log ratio)” value is reported as at most -4.2. For A19C G74U C87A A98G C103G, the “polymerase ribozyme fitness (log ratio)” value was at most -4.2. For A19C G62C A73C G86A C96G, the “polymerase ribozyme fitness (log ratio)” value was at most -4.2. For A19G C27U A28U G50A A52U G86U C118U, the “polymerase ribozyme fitness (log ratio)” value was at most -4.2. In the case of A19G C54A C85G U90C G133A U144G, the “polymerase ribozyme fitness (log ratio)” value is reported as at most -4.2. With C18U G62A G67A U77G C87A U101C C123U G136A the “polymerase ribozyme fitness (log ratio)” value was at most -4.2. For A19C A20U C35G G50U U55A C85G C108G U127A, the “polymerase ribozyme fitness (log ratio)” value was at most -4.2. With C18U A23G A137C the “polymerase ribozyme fitness (log ratio)” value was at most -4.2. With C18U A20U U53A C118G U148A the “polymerase ribozyme fitness (log ratio)” value was at most -4.2. For A19C C32G C85U C87G U102G A121G G124A U139G, the “polymerase ribozyme fitness (log ratio)” value was at most -4.2.

Reference: the RNAGym collection of RNA variant scans (doi:10.1073/pnas.2313332121)
